Measurements: PMC10360995, “Discovery of 3-((3-amino-1H-indazol-4-yl)ethynyl)-N-(4-((4-ethylpiperazin-1-yl)methyl)-3-(trifluoromethyl)phenyl)benzamide (AKE-72), a potent Pan-BCR-ABL inhibitor including the T315I gatekeeper resistant mutant” (Journal of Enzyme Inhibition and Medicinal Chemistry, 2023)

Tests used:
[1] = tested on: Ba/F3 cells expressing native BCR-ABL; assay: Cellular proliferation assay; type: cell-based; conditions: Mus musculus, BaF3, read-out: GI50 Ba/F3 (Bcr-Abl)
Source text: (§1) We also tested AKE-72 against BCR-ABL-positive and BCR-ABL-negative cell lines.
(§2) 1.8. Cytochrome P450 Assay
(§3) The binding site was defined based

[2] = tested on: normal RAW264.7 macrophage cells; assay: Cellular proliferation assay; type: cell-based; conditions: Mus musculus, average of three independent experiments ± SD
Source text: as §1, §2, §3

SMILES | GI50 [1] [nM] | GI50 [2] [nM]
CCN1CCN(Cc2ccc(NC(=O)c3cccc(C#Cc4cccc5[nH]nc(N)c45)c3)cc2C(F)(F)F)CC1 [Compound 5, 3-((3-amino-1H-indazol-4-yl)ethynyl)-N-(4-((4-ethylpiperazin-1-yl)methyl)-3-(trifluoromethyl)phenyl)benzamide] | 9.6 ± 2 | 6980 ± 402
Cc1ccc(C(=O)Nc2ccc(CN3CCN(C)CC3)c(C(F)(F)F)c2)cc1C#Cc1cnc2cccnn12 [Ponatinib, reference compound] |  | 2880 ± 153
